In PubChem BioAssay AID504466 (National Center for Advancing Translational Sciences (NCATS), 2011):
About 4,200 (1.3%) of roughly 330,000 compounds were called active. The inconclusive results got no clear call from the source; some entries with a clear call stand among them for comparison. Calls come from the whole dose curve; as a rule, active = well fitted activation curve with a large enough effect; inconclusive = small, poorly fitted or top-dose-only effect; inactive = no such curve, though single readings can be large or run the other way. Where the call is inconclusive, the potency comes from a doubtful curve fit.

Experiment: qHTS screen for small molecules that induce genotoxicity in human embryonic kidney (HEK293T) cells expressing luciferase-tagged ELG1; note: nearly all actives have a fitted effect of over 60% in size
Details: HEK293T ELG1-luciferase reporter, luminescence, 16 h; series mostly up to 46 µM
Procedure, shortened: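 Cells (2,000/well) expressing the ELG1-luciferase fusion are dosed by pin tool and kept 16 hr at 37 °C, 5% CO2. Signal comes from ONE-Glo luciferase reagent after 30 min at room temperature.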
Potency is the fitted concentration of half-maximal effect; tags give direction and shape of the fitted curve.

SMILES | Potency
COCCCNC(=O)COc1cc2c(c3oc(=O)c(C)c(C)c13)CCC(C)(C)O2 | inactive
O=C(CCl)Nc1nc(-c2ccco2)c(-c2ccco2)s1 | inconclusive: 25.9 µM [activator, single point]
COc1ccc(/C=N/Nc2nncn2N)cc1Br | inactive
COc1ccc(Cc2nc3ccc(C(=O)N(C)CC4COCCO4)cc3o2)cc1 (stereo not given) | inconclusive: 23.1 µM [activator, partial curve, poor fit]
COc1ccc(NC(=O)c2sccc2C)cn1 | inconclusive: 14.6 µM [activator, partial curve]
COc1ccc2nc(NC(=O)CN3CCOCC3)sc2c1 | inconclusive: 23.1 µM [activator, partial curve, poor fit]
Cc1ccc2c(=O)[nH]c(Nc3nc(C)cc(-c4ccccc4)n3)nc2c1 | inconclusive: 29.1 µM [activator, partial curve, poor fit]
COc1ccc(CN2CCN(Cc3cccc(OC)c3)C(CCO)C2)cc1 (stereo not given) | inactive
CC(C)(C)OC(=O)NNC(=O)c1ccc(Cl)cc1 | inconclusive: 32.6 µM [activator, partial curve, poor fit]
CCOC(=O)N1CCN(C(=O)CCCOc2ccccc2)CC1 | inconclusive: 10.3 µM [activator, partial curve]
CC(C)c1ccc(/C=C/C(=O)NC2=NCCS2)cc1 | inconclusive: 0.291 µM [activator, full curve]
Cc1ccc(COc2ccc(Br)cc2/C=N/O)cc1 | inconclusive: 5.8 µM [activator, full curve, poor fit]
CCOC(=O)N1CCC(NC(=O)c2ccc3c(c2)N=C(C)c2c(C)ccc(C)c2S3)CC1 | inactive
CC(C)Cc1cc(C(=O)NCCc2ccccc2)no1 | inconclusive: 13 µM [activator, partial curve]
Cn1cccc1C(=O)OCc1csc(-c2ccccc2)n1 | inconclusive: 2.06 µM [activator, full curve]
CC(C)c1ccc(NC(=O)CN2C(=O)NC3(CCCCCCC3)C2=O)cc1 | inactive
CCCc1cc(=O)[nH]c(SCc2nc3ccccc3o2)n1 | inconclusive: 25.9 µM [activator, single point]
O=C(O)c1ccc(N/N=C/c2cccc3cccnc23)cc1 | inconclusive: 0.82 µM [activator, full curve]
O=C(Nc1ccccc1)c1cc([N+](=O)[O-])ccc1NCc1cccnc1 | inactive
Cc1cccc(C(=O)OCC(=O)N2CCCCCC2)c1O | inconclusive: 13 µM [activator, partial curve]
Cc1oc(C(=O)Nc2ccc(O)cc2)cc1COc1ccccc1 | inconclusive: 18.4 µM [activator, single point]
Fc1cc(Br)ccc1COc1ccc(-c2nnco2)cc1 | inconclusive: 11.6 µM [activator, partial curve]
COC(=O)C1CCN(Cc2cc(=O)oc3cc(OC)ccc23)CC1 | inconclusive: 15.8 µM [activator, partial curve, poor fit]
COc1ccc2cc3cc(C(=O)N4CCCC(C)C4)oc3nc2c1 (stereo not given) | inconclusive: 2.59 µM [activator, partial curve]

SMILES | Potency
C/C(=N\Nc1ccccn1)c1ccc2c(c1)OCO2 | inconclusive: 18.3 µM [activator, partial curve, poor fit]
Cc1nc(-c2ccc(NC(=O)CC(C)C)cc2)cs1 | inconclusive: 11.6 µM [activator, partial curve]
CCOC(=O)c1cc(-c2ccc(OC)cc2)n[nH]1 | inconclusive: 18.3 µM [activator, partial curve, poor fit]
O=C(N/N=C\c1cn[nH]c1-c1ccccc1)c1cccnc1 | inactive
NS(=O)(=O)c1ccc(N/C=C\C(=O)c2ccc(F)cc2)cc1 | inconclusive: 7.3 µM [activator, partial curve]
COc1cccc(-c2cc(C(=O)NCC3CCCO3)c3cc(Br)cc(C)c3n2)c1 (stereo not given) | inconclusive: 18.3 µM [activator, partial curve, poor fit]
CCC(=O)Oc1ccc(C(=O)Nc2cccc(C(=O)NCC(C)C)c2)cc1 | inactive
CCN(CC)CCOC(=O)c1ccc(NC(=O)c2cn(-c3ccccc3)nc2-c2cccs2)cc1 | inconclusive: 20.6 µM [activator, single point]
Cc1ccc(NC(=O)c2cc3ccccc3oc2=N)cc1 | inconclusive: 0.326 µM [activator, full curve]
NC(=O)c1ccsc1NC(=O)COC(=O)/C=C/c1ccccc1[N+](=O)[O-] | inactive
O=C(c1ccco1)N1CCN(S(=O)(=O)c2cc(Cl)ccc2Cl)CC1 | inconclusive: 25.9 µM [activator, partial curve, poor fit]
CC(C)Oc1cccc(C(=O)C2CCCN(C(=O)c3ccc4c(c3)OCO4)C2)c1 (stereo not given) | inactive
COc1ccccc1-c1ccc(/C=C2\C=CC(=O)O2)o1 | inactive
CS(=O)(=O)N1CCN(c2ccc(NC(=O)c3ccccc3)cc2)CC1 | inconclusive: 14.6 µM [activator, partial curve]
CCC(=O)N1CCc2cc(S(=O)(=O)CCC(=O)NCc3ccccc3OC)ccc21 | inactive
COc1ccc(/C=C/C(=O)NC(=S)N2CCOCC2)cc1 | inconclusive: 9.2 µM [activator, partial curve]
Clc1ccc(-c2nnc(NC3=NCCCCC3)o2)cc1 | inconclusive: 0.651 µM [activator, partial curve]
Cc1ccc(NCc2nc3ccccc3n2CCOc2ccccc2)cc1 | inconclusive: 3.26 µM [activator, partial curve, poor fit]
O=C(CCCCCn1c(=S)[nH]c2ccc(N3CCOCC3)cc2c1=O)NCCc1ccccc1 | inconclusive: 23.1 µM [activator, partial curve, poor fit]
COc1ccc2c(c1OC)C(=O)N(c1cccc(/C=C/C(=O)O)c1)C2 | inconclusive: 18.3 µM [activator, partial curve, poor fit]
O=C(c1ccc(OCCN2CCCCC2)cc1)c1c(-c2ccc(O)cc2)sc2cc(O)ccc12 | inconclusive: 18.3 µM [activator, partial curve, poor fit]
Cc1ccc(/C=C/C(=O)c2cc(Br)ccc2OC(=O)c2ccco2)cc1 | inconclusive: 20.6 µM [activator, single point]
CC(=O)Nc1ccc(SCCCC(=O)c2ccccc2)cc1 | inconclusive: 18.3 µM [activator, partial curve, poor fit]
CCCCNC(=S)Nc1ccc(-c2nc3ccc(C)cc3s2)cc1 | active: 4.61 µM

SMILES | Potency
CCN(CC)c1ccc(/C=N/NC(=O)c2cccc(S(=O)(=O)Nc3ccccc3OC)c2)cc1 | inactive
O=C(NNC(=O)c1ccccc1Br)c1ccncc1 | inactive
COc1cc(NC(=O)CN2C(=O)C(C)N(c3ccc(C)cc3)C2=O)cc(OC)c1 (stereo not given) | inactive
CCCC[C@@H]1CNCCN1CC1(c2ccccc2)CC1 | inactive
FC(F)(F)c1ccc(/C=N/N2CCN(Cc3cccc4ccccc34)CC2)cc1 | inactive
Cc1cccc2sc(NC(=O)C3CCCO3)nc12 (stereo not given) | inconclusive: 23.1 µM [activator, partial curve, poor fit]
CN(C(=O)CSc1nc2ccccc2o1)C1CCCCC1 | inconclusive: 2.31 µM [activator, full curve, poor fit]
O=C(Nc1ccnn1C1CCN(Cc2cccc(OCCO)c2)CC1)C1CC1 | inactive
Cc1ccc2nc(N3C(=O)C(O)=C(C(=O)c4ccc(C)o4)C3c3ccco3)sc2c1 (stereo not given) | inactive
Cc1cccc(C)c1NC(=O)COc1cccc(/C=N/NC(=O)C(=O)NCc2ccccc2)c1 | inconclusive: 16.4 µM [activator, single point]
C=CC[C@@H](CC(=O)N[C@H](CO)Cc1ccccc1)C(=O)N[C@@H](COC(=O)[C@@H](CC=C)Cc1ccc(F)cc1)Cc1ccccc1 | inconclusive: 29.1 µM [activator, partial curve, poor fit]
C(=N\n1cnnc1)/c1ccc(OCc2cccc3ccccc23)cc1 | inconclusive: 8.2 µM [activator, partial curve]
Cc1ccc(NC2=Nc3ccccc3CS2)cc1 | inconclusive: 0.82 µM [activator, partial curve]
NS(=O)(=O)c1cccc(NC(=O)CCSc2ccccc2Cl)c1 | inconclusive: 16.4 µM [activator, partial curve, poor fit]
Cc1cc(/C=C(\C#N)C(=O)NCc2ccco2)c(C)n1C1CCCC1 | inconclusive: 9.2 µM [activator, partial curve]
Clc1cccc(-c2nc(NCc3cccnc3)c3ccccc3n2)c1 | inactive
Cc1nnsc1C(=O)NNc1ccc(C(C)C)cc1 | inconclusive: 20.6 µM [activator, partial curve, poor fit]
COC(=O)c1ccccc1NC(=O)c1cn(-c2ccc(C)c(C)c2)c(=O)c2ccccc12 | inactive
OCCCNc1ncnc2c1cnn2-c1ccc(Cl)cc1 | inconclusive: 1.64 µM [activator, partial curve]
Cc1ccc(NC(=O)NNC(=O)C2CCN(Cc3ccc(F)cc3Cl)CC2)cc1 | inactive
COc1ccc(OCc2cccc(C(=O)Nc3ccc(CN4CCCCC4)cc3)c2)cc1 | inconclusive: 5.17 µM [activator, partial curve]
Fc1ccc(-c2nnc(-c3ccc(Cl)cc3)o2)cc1 | active: 6.51 µM
